Source: patent EP4578463A1, “ENDO-180 TARGETED ANTIBODY-DRUG CONJUGATES” (Oncomatryx Biopharma, S.L., priority 2023, dated 2025)

How the values were obtained:
[1] = system: IC9LC11 non-small cell lung cancer patient-derived xenograft; experiment: Antitumor activity in IC9LC11 non-small cell lung cancer patient-derived xenograft model; format: in vivo, immunodeficient female mice; conditions: control group end day, D28
parental HEK293 = experiment: Cell viability assay on parental HEK293 cells; format: cell-based; conditions: no IC50 reached up to highest concentration
Procedure: The different anti-Endo180 antibodies (OMTX007-G7V, OMTX707, OMTX807) were analyzed via cell viability assay using the HEK293-Endo180 and HEK293 cell lines. […] No cell killing was detected with the unconjugated OMTX007 antibody and no IC50 values were reached up to 100nM for OMTX807 and OMTX707 in parental HEK293, showing that their activity was Endo180-dependent (see Table 5 below). (Figure 12). Table 5: Summary of OMTX007-G7V, OMTX707 and OMTX807 activity using cell viability analysis on Endo180 versus parental HEK293 cells. n.d.: not determined; mean ± SD: n=2.

[2] = Tolerability (body weight, clinical observations) in IC9LC11 xenograft study; format: in vivo, immunodeficient female mice; conditions: IC9LC11 xenograft mice
[3] = system: SA4033 leiomyosarcoma patient-derived xenograft; experiment: Antitumor activity in subcutaneous SA4033 leiomyosarcoma patient-derived xenograft model; format: in vivo, NOD/SCID immunodeficient female mice
Procedure: (§1) The antitumor activity of OMTX707 was evaluated in a subcutaneous SA4033 leiomyosarcoma patient-derived xenograft model developed in NOD/SCID immunodeficient female mice.
(§2) OMTX707 was administered intravenously at 10 and 30mg/kg once per week for 4 weeks.

[4] = Tolerability (body weight, clinical observations) in SA4033 xenograft study; format: in vivo, NOD/SCID immunodeficient female mice; conditions: 10 and 30 mg/kg; SA4033 xenograft mice
Procedure: as §1, §2

Molecule | TGI ([1]; 10 mg/kg twice per week for 4 weeks) [%] | TGI ([1]; 30 mg/kg twice per week for 4 weeks) [%] | IC50 (parental HEK293) [nM] | tolerability based on body weight data and clinical observations [2] | anti-tumor efficacy compared to the vehicle control group ([3]; 10 mg/kg intravenously once a week) | TGI ([3]; 10 mg/kg once a week, day 48) [%] | anti-tumor efficacy compared to the vehicle control group ([3]; 30 mg/kg intravenously once a week, p=0.114) | TGI ([3]; 30 mg/kg once a week, day 42) [%] | TGI ([3]; 30 mg/kg once a week, day 48) [%] | tolerability based on body weight data and clinical observations [4]
OMTX807 (conjugate) heavy: EVQLVESGGGLVKPGGSLRLSCAASGFTFSSYSMNWVRQAPGKGLEWVANIKPDGSERHSVDSVKGRFTISRDNSKNSLYLQMNSLRAEDTAVYYCARPGAGRLDYWGQGTLVTVSS[omitted - human IgG1 constant region] light: SSELTQDPAVSVALGQTVRITCQGDSLRSYYASWYQQKPGQAPVLVVYGKNNRPSGIPDRFSGSSSGNTASLTITGAQAEDEADYYCNSRDSSGNPWAFGGGTKVTVLGQPKAAPSVTLFPPSSEELQANKATLVCLISDFYPGAVTVAWKADSSPVKAGVETTTPSKQSNNKYAASSYLSLTPEQWKSHRSYSCQVTHEGSTVEKTVAPTECS | 61 | 101 | > 100 | well tolerated |  |  |  |  |  | 
OMTX707: G7V antibody conjugated with the drug-linker TAM558 (cytolysin-linker maleimide caproyl vcPABA); DAR 3.79 (conjugate) heavy: EVQLVESGGGLVKPGGSLRLSCAASGFTFSSYSMNWVRQAPGKGLEWVANIKPDGSERHSVDSVKGRFTISRDNSKNSLYLQMNSLRAEDTAVYYCARPGAGRLDYWGQGTLVTVSS[omitted - human IgG1 constant region] light: SSELTQDPAVSVALGQTVRITCQGDSLRSYYASWYQQKPGQAPVLVVYGKNNRPSGIPDRFSGSSSGNTASLTITGAQAEDEADYYCNSRDSSGNPWAFGGGTKVTVLGQPKAAPSVTLFPPSSEELQANKATLVCLISDFYPGAVTVAWKADSSPVKAGVETTTPSKQSNNKYAASSYLSLTPEQWKSHRSYSCQVTHEGSTVEKTVAPTECS |  |  | > 100 |  | no anti-tumor efficacy | 2.72 | mild anti-tumor efficacy | 48.10 | 48.10 | well tolerated
